Out of some 4,800 compounds screened, about 420 (8.8%) showed an effect of 50% or more. The list shows a part of the results.
Each compound was assayed on Plasmodium falciparum (assay: Confirmatory screen in NF54 nanoGlo assay, in single point, at 2uM, 72h). Conditions: timepoint 72 hour.
Type: functional, Erythrocyte

Compound	% Inhibition
CC(C)(C)NC(=O)C1CCN(C[C@@H]2CC=CCC2)CC1	5%
Cc1ccc(C(=O)NC2c3ccccc3CCC2n2ccnc2)c(=O)[nH]1 (configuration not stated)	-2%
Cc1ccc(N2C(=O)C3C4C=CC(C4=C4CCCC4)C3C2=O)c(C)c1 (configuration not stated)	-5%
CC1CC(C)(C)CCC1NC(=O)NC1CCN(C)C1=O (configuration not stated)	-4%
CC(C)(NC(=O)OCc1ccccc1)/C(N)=N/O	2%
CCc1ccc(C2CCN(C(C(=O)O)c3cccnc3)C2)cc1 (configuration not stated)	1%
Cc1ccc(S(=O)(=O)Cc2nc(-c3ccc(C(=O)NCc4ccccc4C)cc3)oc2C)cc1	-13%
CCN1CCC(N(C)C(=O)Cc2csc(-c3cccnc3)n2)CC1	-7%
O=C(Nc1ccccc1)Nc1nnc[nH]1	-6%
COCc1cc(=O)n(CC(=O)Nc2ccc(OC)cc2)c(N2CCCC2)n1	-2%
Cc1ccc(NC(=O)c2nnn(CC(=O)Nc3ccc4c(c3)OCO4)c2C)cc1F	0%
Clc1ccc(-c2noc(CN(Cc3cccs3)Cc3cccs3)n2)cc1	-4%
O=C(NCc1ncc[nH]1)C1(Cc2nc3ccccc3[nH]2)CCCC1	-8%
O=C(CCn1nc(-c2ccc3c(c2)OCO3)ccc1=O)NC1CCCCC1	-10%
COc1ccccc1Nc1c(-c2cccs2)nc2ccccn12	-2%
COCCN1CCCCc2cc(C(=O)NC[C@H]3CCN(CC(C)C)C3)sc21	-9%
CC(=O)c1ccc(C(C)(C)C)cc1NC(=O)C(C)C	-2%
Cc1cc(NC(=O)Nc2ccccc2)c2[nH]c(C(=O)NCCN3CCOCC3)c(-c3ccccc3)c2c1	-3%
CC(=O)N1C[C@H]2CN(C(=O)Cc3cccc(Cl)c3)CC[C@@]2(c2nc(C)n[nH]2)C1	-5%
c1ccc(C[C@]2(c3ccccc3)CCNC2)cc1	1%
COc1cccc(Cn2c(=O)c3sccc3n(CC(=O)Nc3ccc(N(C)C)cc3)c2=O)c1	14%
COc1cccc(N2CCN(C(=O)C3CCN(c4nc5cccnc5n(C)c4=O)CC3)CC2)c1	-17%
O=C(COC(=O)c1nccc2ccccc12)Nc1cc(F)ccc1Cl	-1%
O=C(NCC1CCCCC1)c1cn[nH]c1-c1ccccc1	-4%
Cc1ccc([C@@H]2c3cccn3CCCN2Cc2cccs2)cc1C	10%
COc1cccc([C@H]2CC(=O)Nc3c2cnn3C)c1	-8%

Compound	% Inhibition
Cc1nc2c(-c3ccco3)nc(=O)n(CC(=O)Nc3cccc4ccccc34)c2s1	-8%
COc1cc(Br)cc(C#N)c1O	14%
Cc1ccc(S(=O)(=O)N2CCN(C(=O)CCn3cncn3)CC2)cc1	-17%
Cc1ccnc2nc(C(=O)N(CC3CC3)CC(F)(F)F)nn12	-2%
Cc1cc(OC[C@@H](O)CNC(C)(C)CC(C)(C)C)cc(C)c1Cl	67%
CC(=O)N[C@H]1CCc2nc(N)sc2C1	3%
COC[C@H]1CCCN1C(=O)C[C@@H]1O[C@H](CNC(=O)Nc2ccccc2)[C@@H](O)[C@H]1O	-6%
Cc1nc(C)c(C(=O)N[C@](C)(c2ccc(Br)cc2)C(C)C)o1	-13%
CCC[C@]1(C)NC(=O)N(c2csc(-c3ccccc3)n2)C1=O	-3%
Fc1cccc(F)c1CNC[C@@H]1NCCc2ccccc21	-5%
COc1ccc(OCC(=O)Nc2ccc(N3CCn4c(nc5ccccc54)C3)cc2Cl)cc1	-8%
CN(C)c1ccc(NC(=O)Cn2cnc3ccc(Cl)cc3c2=O)cc1	-7%
COc1cc2c(cc1OC)CN(c1noc(-c3ccccc3)n1)CC2	-5%
Cc1ccc2nc(-c3cc4ccccc4o3)cn2c1	44%
Cc1nc(CNS(=O)(=O)Cc2ccc(F)c(Cl)c2)sc1C	-1%
Cc1ccc(CNc2ccc(S(C)(=O)=O)cc2)c(=O)n1C	-9%
Cc1c(C(=O)NCCc2ccc(Cl)cc2)oc2ccc3c(c12)[C@@H](O)CC(C)(C)O3	4%
CC(C)CNCc1cccc(Br)c1	7%
Oc1ccccc1CCN[C@H]1CCc2ccc(F)cc21	98%
CCc1nc(CNc2ccc(C)c(S(=O)(=O)NC3CC3)c2C)n[nH]1	-16%
CC(=O)N1CCc2cc(-c3ccc(C(=O)NCC[C@H](C)N4CCCC4)cc3)ccc21	0%
Oc1cc2ccccc2cc1-c1nnc(-c2ccccc2)c(-c2ccccc2)n1	-13%
O=S(=O)(N[C@H]1CCc2nnc(-c3ccc(F)cc3)n2C1)c1cccnc1	1%
Cc1noc(-c2csc(-c3c[nH]cn3)n2)n1	-7%
CN(CCNC(=O)CCc1cn(-c2ccccc2)nc1-c1ccc2c(c1)OCO2)C1CCCCC1	52%
CNc1nc(NCCc2ccccc2)nc2ccccc12	80%

Compound	% Inhibition
Cc1c(S(=O)(=O)N2CCN(C(=O)c3ccc(F)cc3)CC2)cnn1C(F)F	0%
Cc1ccccc1NC(=O)Cc1nnc(N)s1	-3%
Cc1cc(C(F)(F)F)nn2cnnc12	-17%
Cc1ccc(F)cc1S(=O)(=O)N1CC[C@]2(CCN(c3cccnc3)C2)C1	-13%
O=C(c1cc2ncccn2n1)N1CCc2ccccc2C1	-3%
O=C(Nc1ccn(Cc2cccc(Cl)c2)n1)c1nn2cccnc2c1Cl	-10%
Cc1c(NC(=O)c2ccccc2-c2ccccc2)ccc(N2CCCC2=O)c1NC(=O)c1ccccc1-c1ccccc1	-9%
CNC(=O)CNC(=O)c1cccc(Cl)c1	-1%
COCCN1CCc2c(C)nc3c(-c4ccc(OC)c(OC)c4)cnn3c21	6%
Cc1cccc(Nc2nc(-c3cnc(N4CCN(C)CC4)nc3C)cc(=O)[nH]2)c1	-7%
CCn1c(-c2cc(NC(=O)c3ccc4c(c3)OCO4)[nH]n2)cc2ccc(OC)cc21	31%
Cc1ccc(NC(=O)c2c(C)nc3sc(C(=O)NCc4ccccc4)c(N)c3c2-c2ccccc2Cl)c(C)c1	77%
Cc1ccc(N2CCN(c3ncc4c(=O)n(-c5ccc6c(c5)OCO6)c(=O)[nH]c4n3)CC2)cc1	-11%
Cc1cc(-n2c(C)cc(C(=O)Cn3c(C(F)(F)F)ccc(C(N)=O)c3=O)c2C)no1	25%
CCC[C@H](C)c1nc(N2CCN(C(=O)Cc3ccc(OC)cc3)CC2)c2cnn(-c3ccccc3)c2n1	10%
CC(C)C(NC(=O)COc1ccccc1)C(=O)NCC(c1ccccc1Cl)c1c[nH]c2ccccc12 (configuration not stated)	69%
c1cn2cnnc2c(N(CC2CC2)CC2CC2)n1	-9%
CCN(CC)c1ccc(NS(=O)(=O)c2ccc(N3C(=O)[C@@H](C)CS3(=O)=O)cc2)cc1	0%
Cc1c(C(=O)Nc2cccc(S(=O)(=O)NC3CC3)c2)cnn1C	-1%
O=S(=O)(c1ccc(Cl)s1)N1CCC(N2CCc3sccc3C2)CC1	44%
COc1ccc([C@@H]2C=C(c3ccc(Cl)cc3)N=C3NC(NC(=O)c4ccccc4OC)=NN32)cc1	97%
COc1ccc2cc3n(c2c1)C[C@](C(=O)NC1CCCCCC1)(c1ccccc1)N(Cc1ccccc1Cl)C3=O	3%
Cc1cc(CS(=O)(=O)NCCOc2ccc(Cl)cc2)on1	2%
O=S(=O)(Cc1cc(O)n(-c2ccccc2)n1)c1ccccc1	-7%
O=c1nc2n(nc1-c1ccccc1)C1(CCC1)Nc1ccccc1-2	74%
c1ccc(CC2=NCCc3ccccc32)cc1	65%

Compound	% Inhibition
Cc1[nH]ccc(=O)c1Cc1c(Cl)cccc1Cl	-16%
O=C(CN1CCC2(CC1)NC(c1ccc(OC(F)(F)F)cc1)=NO2)NCc1ccc(F)cc1	-7%
O=C(Nc1ccc2c(c1)OCCO2)N1CCC(O)CC1	0%
Cc1ncc(CN(C)[C@@H](C)C(=O)Nc2ccc3c(c2)OC2(CCCCC2)O3)s1	-4%
O=C(c1cc2nc(-c3ccc(Cl)c(Cl)c3)cc(C(F)(F)F)n2n1)N1CCN(c2ccccc2)CC1	-10%
CN1CCN(c2ccc(F)cc2C(=O)NCc2ccc3cnn(C)c3c2)CC1	-8%
Oc1cc(-c2ccc3ccccc3c2)[nH]n1	-11%
O=C(OCC(=O)N1CCN(Cc2ccccc2)CC1)c1nccc2ccccc12	1%
COc1cc(C(=O)NCCN2CCOCC2)cc2occc12	-4%
O=c1c2cc(F)c(F)cc2ncn1C[C@@H](O)CC1CCCC1	-4%
COc1ccc(-n2nc(C(=O)N3CCN(c4ncccn4)CC3)c(=O)cc2OC)cc1	-24%
CN(CC[C@H](O)C(F)(F)F)Cc1ccccc1	-13%
CC1CCCC(C)N1C(=O)CN(C)c1cccc2cccnc12 (configuration not stated)	-7%
Cc1cc(C(=O)N[C@@H](C)c2nc(-c3cccnc3)cs2)cc(O)n1	53%
CCc1ccc(-c2n[nH]c3c2cnc2ccc(OC)cc23)cc1	-1%
C[N+]1(CCCC(=O)c2ccc3c(c2)OCCO3)CCC(c2ccccc2)C1 (configuration not stated)	49%
CCCn1nc(-n2cnnc2)c(NC(=O)c2ccc3c(c2)OCO3)c1C	-4%
CCc1ccc(NC(=O)Cn2c(=O)ncc3cc(S(=O)(=O)N4CCCC[C@@H]4C)ccc32)cc1	5%
O=S(=O)(Nc1nncs1)c1cccs1	-10%
Cc1ccc2nc(O)c3nnc(C)n3c2c1	-2%
Cn1ccc(C(=O)Nc2ccc(-c3ccccc3)cn2)cc1=O	-17%
CC[C@](C)(NC(=O)Nc1cncnc1OC)c1nc(C)cs1	2%
O=c1ccc(F)cn1Cc1csc(C2CCCC2)n1	-1%
CCCC(=O)N1CCC(OC(=O)c2cnc3ccc(F)cc3c2)CC1	-2%

— ChEMBL document CHEMBL4888484, “Replenishing the malaria drug discovery pipeline: Screening and hit evaluation of the MMV Hit Generation Library 1 (HGL1) against asexual blood stage Plasmodium falciparum ,using a nano luciferase reporter read-out” (2022)
